Assay results from publication PMC11494340, “High-throughput screening for small-molecule stabilizers of misfolded glucocerebrosidase in Gaucher disease and Parkinson’s disease” (Proceedings of the National Academy of Sciences of the …, 2024).

Target: T1, HiBiT-GCase-L444P (Homo sapiens, UniProt P04062, L483P)
T1 sequence (P04062 40-536 L483P): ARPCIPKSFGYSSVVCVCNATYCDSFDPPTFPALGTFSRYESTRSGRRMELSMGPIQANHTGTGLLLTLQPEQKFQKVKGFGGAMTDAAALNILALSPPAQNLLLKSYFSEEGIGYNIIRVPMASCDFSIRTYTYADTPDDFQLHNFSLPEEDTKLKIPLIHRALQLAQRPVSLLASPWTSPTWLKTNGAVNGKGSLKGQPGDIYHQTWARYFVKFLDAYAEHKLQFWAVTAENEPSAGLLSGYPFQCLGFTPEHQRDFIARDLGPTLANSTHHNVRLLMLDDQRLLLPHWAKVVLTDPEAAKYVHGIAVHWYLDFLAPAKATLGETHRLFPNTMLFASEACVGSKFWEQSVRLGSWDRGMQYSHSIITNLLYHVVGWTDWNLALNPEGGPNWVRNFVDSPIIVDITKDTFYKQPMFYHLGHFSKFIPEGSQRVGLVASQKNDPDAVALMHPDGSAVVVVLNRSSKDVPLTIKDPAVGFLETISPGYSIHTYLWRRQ
Design: AUC: unit not given beside the values
Details: for CC-v2: qHTS curve class

[1] = follow-up screen, 24 h, relative to DMSO control
[2] = follow-up screen, 24 h, listed as NCGC00162453-15
[3] = follow-up screen, 24 h, listed as NCGC00168085-22
[4] = follow-up screen, 24 h, listed as NCGC00263155-07
[5] = follow-up screen, 24 h, listed as NCGC00263177-07

AC50 (follow-up screen, 24 h)	AUC (follow-up screen, 24 h)	CC-v2 (follow-up screen, 24 h)	Efficacy [1]	SMILES	also measured
14.1 µM	62.8	1.2		CN(C(=O)CNC(=O)c1ccccc1OCC(=O)Nc1ccc(I)cc1)c1ccccc1 [NCGC607]	
59.5 µM	-32.6	2.1	119	NC(=O)c1nnn(Cc2cc(Cl)c(C(=O)c3ccc(Cl)cc3)c(Cl)c2)c1N [NCGC00014926-04, L-651,582]	
47.3 µM	25.5	1.1		COc1ccccc1N1CCN(CC(O)COc2cccc3ccccc23)CC1 (centres unmarked) [NCGC00015718-17, Naftopidil]	
	-30.6	2.4		CCOC(=O)C1=C[C@]2(CC)CCCN3CCc4c(n1c1ccccc41)[C@@H]32 [NCGC00018204-17, Vinpocetine]	
63.1 µM	-45.8	1.1		C1CCC(C(CC2CCCCN2)C2CCCCC2)CC1 (centres unmarked) [NCGC00018261-06, Perhexiline]	
9.4 µM	-3.6	1.2	42	N[C@](CC1c2ccccc2Oc2ccccc21)(C(=O)O)[C@@H]1C[C@@H]1C(=O)O [NCGC00025041-04, LY341495]	
1.9 µM	599.3	1.1	425	CC(/C=C/C(=O)NO)=C\[C@@H](C)C(=O)c1ccc(N(C)C)cc1 [NCGC00162453-18, Trichostatin A]	AC50 [2]: 0.749 µM; AUC [2]: 637.2; Efficacy (follow-up screen, 24 h, relative to DMSO control, listed as NCGC00162453-15): 353
4.2 µM	434.3	1.1		Nc1ccccc1NC(=O)c1ccc(CNC(=O)OCc2cccnc2)cc1 [NCGC00165833-13, Entinostat]	
53 µM	85.4	1.1	130	O=C(Nc1cc(C(F)(F)F)ccc1O)Nc1cc(C(F)(F)F)ccc1O [NCGC00165838-03, NS1643]	
23.7 µM	41.6	1.1		NC(=O)[C@@H]1CCCN1C(=O)[C@H](Cc1cnc[nH]1)NC(=O)[C@@H]1CCC(=O)N1 [NCGC00166322-02, PROTIRELIN]	
28.2 µM	-35.4	2.2		C=C1/C(=C\C=C2/CCC[C@]3(C)[C@@H]([C@H](C)/C=C/[C@@H](O)C4CC4)CC[C@@H]23)C[C@@H](O)C[C@@H]1O [NCGC00167465-02, Calcipotriene]	
59.5 µM	31.7	2.1	108	O=c1oc(-c2ccc(C(F)(F)F)cc2)nn1Cc1cc(Cl)ccc1O [NCGC00167822-02, BMS 191011]	
35.5 µM	248.1	1.1	658	O=C(CCCCCCC(=O)Nc1ccccc1)NO [NCGC00168085-05, Vorinostat (SAHA)]	AUC (follow-up screen, 24 h, listed as NCGC00168085-13): 404.7; AC50 [3]: 3.3 µM; AUC [3]: 476.8; Efficacy (follow-up screen, 24 h, relative to DMSO control, listed as NCGC00168085-13): 340; Efficacy (follow-up screen, 24 h, relative to DMSO control, listed as NCGC00168085-22): 356; Efficacy (normalized to DMSO, 100% efficacy reflects a doubling of GCase levels): 658%
9.2 µM	12.8	1.1	103	C=C1C(=O)O[C@@H]2C3C(=C(C)[C@@H](O)[C@@H](OC(=O)/C(=C/C)COC(C)=O)[C@@H]12)C(=O)[C@H]1O[C@@]31C (some centres unmarked) [NCGC00168883-03]	
4 µM	142.3	1.1	169	C=C1[C@@H](C2=CC(=O)OC2)CC[C@@]2(O)[C@@H]1CC1[C@H]2CC[C@@H]2C[C@@H](O[C@H]3O[C@@H](C)[C@@H](O[C@@H]4O[C@H](CO[C@@H]5O[C@H](CO)[C@@H](O)[C@H](O)[C@H]5O)[C@@H](O)[C@H](O)[C@H]4O)[C@H](OC)[C@H]3O)CC[C@]12C (some centres unmarked) [NCGC00169844-02]	
6.5 µM	62.7	1.1	132	CC1(C)CC[C@]2(C(=O)O)CC[C@]3(C)C(=CC[C@@H]4[C@@]5(C)C[C@@H](O)[C@H](O)C(CO)(CO)[C@@H]5CC[C@]43C)[C@@H]2[C@@H]1O [NCGC00180693-03]	
89.1 µM	55.2	2.1	115	CCCNC(=O)CNC(=O)c1ccccc1OCC(=O)Nc1ccc(Br)cc1 [NCGC00182268-01]	
21.1 µM	116.8	2.1		COC(=O)C1=C(C)NC(COC(N)=O)=C(C(=O)OC(C)C)C1c1cccc(Cl)c1Cl (centres unmarked) [NCGC00183830-01, Lemildipine]	
	72.4	2.2		O=C(CCCN1CCN(c2ccc(F)cc2)CC1)NC1c2ccccc2CSc2ccccc21 (centres unmarked) [NCGC00183837-01, Monatepil]	

AC50 (follow-up screen, 24 h)	AUC (follow-up screen, 24 h)	CC-v2 (follow-up screen, 24 h)	Efficacy [1]	SMILES	also measured
89.1 µM	-8.8	2.2	50	Cc1cc(C)n2ncc(C(=O)Nc3ccccc3Sc3ccccc3)c2n1 [NCGC00229712-01]	
100 µM	64.2	2.2	80	O=C(COc1ccccc1C(=O)NCc1ccccc1)Nc1ccc(I)cc1 [NCGC00241319-01]	
39.8 µM	6.8	2.2	50	COc1ccc(CNC(=O)c2ccccc2OCC(=O)Nc2ccc(I)cc2)cc1 [NCGC00241320-01]	
50.1 µM	56.5	2.2	48	CN(C)c1ccc(CNC(=O)c2ccccc2OCC(=O)Nc2ccc(I)cc2)cc1 [NCGC00241321-01]	
39.8 µM	100.5	1.2	57	CCCCCCc1ccc(NC(=O)CNC(=O)c2ccccc2OCC(=O)Nc2ccc(I)cc2)cc1 [NCGC00241470-01]	
50.1 µM	105.1	1.1	99	CC(C)(C)c1ccc(NC(=O)CNC(=O)c2ccccc2OCC(=O)Nc2ccc(F)cc2)cc1 [NCGC00241593-01]	
31.6 µM	7.4	1.2	56	CN(C(=O)CNC(=O)c1ccccc1OCC(=O)Nc1ccc(Br)cc1)c1ccccc1 [NCGC00241605-03]	
50.1 µM	63.7	1.1	115	N#Cc1ccc(NC(=O)CNC(=O)c2ccccc2OCC(=O)Nc2ccc(I)cc2)cc1 [NCGC00241608-01]	
31.6 µM	57.2	1.1	128	Cc1ccc(NC(=O)CNCc2ccccc2OCC(=O)Nc2ccc(I)cc2)cc1 [NCGC00242322-01]	
89.1 µM	47.3	1.2	58	Cc1cc(C)n2ncc(C(=O)Nc3ccc(C#CCCCN4CCN(C)CC4)cc3)c2n1 [NCGC00242356-01]	
11.9 µM	113.6	1.1		CC(C)(C)c1cc(C(C)(C)C)c(NC(=O)c2c[nH]c3ccccc3c2=O)cc1O [NCGC00242480-08, Ivacaftor]	
89.1 µM	154.7	2.1	143	Cc1ccc(NC(=O)[C@H](C)NC(=O)c2ccccc2OCC(=O)Nc2ccc(I)cc2)cc1 [NCGC00244548-01]	
25.1 µM	79.6	2.4	41	CN(C(=O)CNC(=O)c1cc(F)ccc1OCC(=O)Nc1ccc(I)cc1)c1ccc(F)cc1 [NCGC00249581-01]	
0.447 µM	505.2	1.1		CC(C)C[C@H](NC(=O)CNC(=O)c1cc(Cl)ccc1Cl)B(O)O [NCGC00249611-04, Ixazomib]	
7.5 µM	90.5	1.1		Cc1c[nH]c(-c2cnc(NCCNc3ccc(C#N)cn3)nc2-c2ccc(Cl)cc2Cl)n1 [NCGC00250379-09, CT-99021]	
2.4 µM	354.4	1.1	285	CC(C)(C)OC(=O)Nc1ccc(-c2cc(C(=O)NCCCCCCC(=O)NO)no2)cc1 [NCGC00250390-03, ISOX]	
0.376 µM	893.2	1.1		CCCCc1nc2cc(/C=C/C(=O)NO)ccc2n1CCN(CC)CC [NCGC00263136-04, Pracinostat]	
0.9 µM	806.6	1.1		O=C(/C=C/c1cccc(S(=O)(=O)Nc2ccccc2)c1)NO [NCGC00263155-09, Belinostat]	AC50 [4]: 1.7 µM; AUC [4]: 577.3
1.2 µM	432.6	1.1		C#Cc1cccc(Nc2ncnc3cc(OC)c(OCCCCCCC(=O)NO)cc23)c1 [NCGC00263177-10, CUDC-101]	AC50 [5]: 0.266 µM; AUC [5]: 251.5

SMILES	AC50 (follow-up screen, 24 h)	AUC (follow-up screen, 24 h)	CC-v2 (follow-up screen, 24 h)	Efficacy [1]	also measured
O=C(/C=C/C#Cc1cccc(NS(=O)(=O)c2ccccc2)c1)NO [NCGC00165855-06, Oxamflatin]	1.1 µM	226.4	1.1	113	

Where two headings read alike, the source gives them in different places.
